In paper PMC10714751 (Microbiology Spectrum, 2023):
Like-named read-outs stand apart in the source and are kept apart here. Starred links: 1 amine or outer side, 2 acyl side, 3 side chain; linkers in the order of their positions; H or OH if unused. Positions of bridges follow the written chain, without caps; N, C: chain ends. Non-standard residues stand in square brackets, D forms with d. Residues, ends and D or L forms follow the SMILES beside them. *: point of attachment. dAsp(3R-OH) = N[C@@H](C(=O)O)[C@@H](O)C(=O)O; Palmitoleoyl = CCCCCC/C=C\CCCCCCCC(=O)*; X1 = NC[C@H](O)[C@@H](N[*:1])C(=O)[*:2]; X2 = CCC(C)(O)[C@H](N[*:1])C(=O)[*:2]; d(aIle) = CC[C@H](C)[C@@H](N)C(=O)O; d(aThr) = C[C@@H](O)[C@@H](N)C(=O)O; Myristoyl = CCCCCCCCCCCCCC(=O)*; dOrn = NCCC[C@@H](N)C(=O)O; X3 = CC[C@H](C)CCCCC(=O)*; hSer = N[C@@H](CCO)C(=O)O; Dab = NCC[C@H](N)C(=O)O

Assays:
[1] = system: A. baumannii (ATCC 17978); experiment: LpxC inhibition by CHIR-090 kinetic assay; assay type: cell-based, Acinetobacter baumannii; conditions: turnercyclamycins 16 µg/mL, colistin 8 µg/mL; for effect on A. baumannii growth as single agent: OD600 every 30 min for 24 h, 37°C, CHIR-090 8 µg/mL
Experimental: Turnercyclamycins A and B (16 µg/mL) and colistin (8 µg/mL) were used singly and in combination with CHIR-090 (8 µg/mL). Each assay was performed in triplicate in a 96-well plate. The plate was then incubated statically at 37°C in a Biotek-Synergy 2 Microplate Reader (Biotek). The OD600 of each well was then measured every 30 min for 24 h.

[2] = system: A. baumannii (ATCC 17978); experiment: Exogenous addition of purified LPS and lipid A assay; assay type: cell-based, Acinetobacter baumannii; conditions: 500 µg/mL in text (100 µg/mL in method and legend); for increase of MIC90 in the presence of exogenous LPS: purified LPS; for increase of MIC90 in the presence of exogenous lipid A: purified lipid A
Experimental: Prior to the addition of test compounds, either purified LPS (Sigma-Aldrich L2018) or lipid A (Sigma-Aldrich L5399) (100 µg/mL) was added to wells.

A. baumannii ATCC 17978 = conditions: for Decrease (%): 26 h; for Δ (change in log CFU/thigh relative to 2 h baseline): 26 h versus 2 h baseline
Experimental: Eurofins used mice from BioLASCO Taiwan.
The dosing volumes were 10 mL/kg.

C[C@@H](O)[C@H](NC(=O)c1ccc(C#Cc2ccc(CN3CCOCC3)cc2)cc1)C(=O)NO [CHIR-090]
effect on A. baumannii growth as single agent [1]: did not cause the death

CC[C@H](C)CCCCC(=O)N[C@@H](CCN)C(=O)N[C@H](C(=O)N[C@@H](CCN)C(=O)N[C@H]1CCNC(=O)[C@H]([C@@H](C)O)NC(=O)[C@H](CCN)NC(=O)[C@H](CCN)NC(=O)[C@H](CC(C)C)NC(=O)[C@@H](CC(C)C)NC(=O)[C@H](CCN)NC1=O)[C@@H](C)O [Colistin, colistin (polymyxin E)] (X3-[Dab]T[Dab][Dab][Dab][dL]L[Dab][Dab]T; lactam 4-C)
effect on A. baumannii growth as single agent [1]: effective as single agents
effect on A. baumannii growth in combination with CHIR-090 ([1]; with CHIR-090 8 µg/mL, OD600 for 24 h): the bacteria survived
increase of MIC90 in the presence of exogenous LPS [2]: approximately fourfold
increase of MIC90 in the presence of exogenous lipid A [2]: approximately fourfold
Decrease (%) (A. baumannii ATCC 17978): 100%

CCCCCCCCCCCCCC(=O)N[C@H](CCCN)C(=O)N[C@@H](CO)C(=O)N[C@H](C(=O)N[C@@H](C(=O)N[C@@H](C(=O)N[C@H]1C(=O)NCC(=O)N[C@@H](C(C)(O)CC)C(=O)N[C@H]([C@@H](C)CC)C(=O)N[C@@H](CCO)C(=O)N[C@@H](C)C(=O)N[C@H]([C@@H](C)CC)C(=O)N[C@@H](CCC(=O)O)C(=O)O[C@@H]1C)[C@@H](O)CN)[C@@H](O)C(=O)O)C(C)C (stereo partly drawn) [Turnercyclamycin A] (Myristoyl-[dOrn]SV[dAsp(3R-OH)][X1][d(aThr)]G[X2][d(aIle)][hSer]A[d(aIle)]E; ester 6-C)
increase of MIC90 in the presence of exogenous LPS [2]: fourfold
increase of MIC90 in the presence of exogenous lipid A [2]: twofold
Decrease (%) (A. baumannii ATCC 17978; 6.25 mg/kg IV, BID, q12h, CFU per thigh versus vehicle): 27%
Δ (change in log CFU/thigh relative to 2 h baseline) (A. baumannii ATCC 17978; 6.25 mg/kg IV, BID, q12h): 2.27
Decrease (%) (A. baumannii ATCC 17978; 12.5 mg/kg IV, BID, q12h, CFU per thigh versus vehicle): 98%
Δ (change in log CFU/thigh relative to 2 h baseline) (A. baumannii ATCC 17978; 12.5 mg/kg IV, BID, q12h): 0.10
Decrease (%) (A. baumannii ATCC 17978; 25 mg/kg IV, BID, q12h, CFU per thigh versus vehicle): 100%
Δ (change in log CFU/thigh relative to 2 h baseline) (A. baumannii ATCC 17978; 25 mg/kg IV, BID, q12h): -1.65
response at 26 h after infection relative to colistin (A. baumannii ATCC 17978; 25 mg/kg i.v. at 2 and 14 h, colistin 30 mg/kg s.c.): comparable to colistin
reduction in bacterial counts at 26 h after infection (A. baumannii ATCC 17978; 25 and 12.5 mg/kg i.v. at 2 and 14 h after infection (higher two doses)): statistically significant reduction

CCCCCC/C=C\CCCCCCCC(=O)N[C@H](CCCN)C(=O)N[C@@H](CO)C(=O)N[C@H](C(=O)N[C@@H](C(=O)N[C@@H](C(=O)N[C@H]1C(=O)NCC(=O)N[C@@H](C(C)(O)CC)C(=O)N[C@H]([C@@H](C)CC)C(=O)N[C@@H](CCO)C(=O)N[C@@H](C)C(=O)N[C@H]([C@@H](C)CC)C(=O)N[C@@H](CCC(=O)O)C(=O)O[C@@H]1C)[C@@H](O)CN)[C@@H](O)C(=O)O)C(C)C (stereo partly drawn) [Turnercyclamycin B] (Palmitoleoyl-[dOrn]SV[dAsp(3R-OH)][X1][d(aThr)]G[X2][d(aIle)][hSer]A[d(aIle)]E; ester 6-C)
increase of MIC90 in the presence of exogenous LPS [2]: fourfold
increase of MIC90 in the presence of exogenous lipid A [2]: twofold
